Source: the supplement of paper PMC4967469
By IC50 is meant the dose at which the fit gives 50% viability; fits outside the tested doses are given as limits. AUC sums up the same curve from the lowest dose to the 256-fold higher top dose; it is 1 without any effect and falls as sensitivity rises. The top dose, if marked as inferred, comes from the curve model; the source does not state it.

Compound: Cn1cc(C2=C(c3cn(C4CCN(Cc5ccccn5)CC4)c4ccccc34)C(=O)NC2=O)c2ccccc21 [LY317615]
Experiment: Viability of human cancer cell lines after 72 h of drug (GDSC screen)
Details: top dose inferred
Procedure: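 Human cancer cell lines in 384-well plates, medium with 10% serum, drug for 72 h over a 256-fold dose range (nine 2-fold or five 4-fold steps up to the top dose). Adherent lines were fixed and stained with the nucleic acid dye Syto60, suspension lines read with resazurin; signal relative to control wells, capped at 0 and 100%. One two-parameter sigmoid per drug and line, fitted in a mixed model over all curves with the slope shared within a line.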

Cell Line | AUC | IC50 [µM]
NCI-H1703 (lung adenocarcinoma, adherent, top dose 20 µM) | 0.818 | 14.5
NCI-H1734 (lung adenocarcinoma, adherent, top dose 20 µM) | 0.863 | > 20
NCI-H1755 (lung adenocarcinoma, adherent, top dose 20 µM) | 0.351 | 0.449
NCI-H1770 (non-small cell lung carcinoma, suspension, top dose 20 µM) | 0.903 | > 20
NCI-H1781 (lung adenocarcinoma, adherent, top dose 20 µM) | 0.933 | > 20
NCI-H1793 (lung adenocarcinoma, adherent, top dose 20 µM) | 0.982 | > 20
NCI-H1836 (small cell lung carcinoma, suspension, top dose 20 µM) | 0.961 | > 20
NCI-H1838 (lung adenocarcinoma, adherent, top dose 20 µM) | 0.941 | > 20
NCI-H1869 (lung squamous cell carcinoma, adherent, top dose 20 µM) | 0.607 | 2.57
NCI-H1876 (small cell lung carcinoma, adherent, top dose 20 µM) | 0.974 | > 20
NCI-H1915 (large cell lung carcinoma, adherent, top dose 20 µM) | 0.772 | 7.85
NCI-H1944 (lung adenocarcinoma, adherent, top dose 20 µM) | 0.404 | 0.668
NCI-H1975 (lung adenocarcinoma, adherent, top dose 20 µM) | 0.719 | 5.78
NCI-H1993 (lung adenocarcinoma, adherent, top dose 20 µM) | 0.872 | > 20
NCI-H2009 (lung adenocarcinoma, adherent, top dose 20 µM) | 0.98 | > 20
NCI-H2023 (lung adenocarcinoma, adherent, top dose 20 µM) | 0.888 | > 20
NCI-H2029 (small cell lung carcinoma, adherent, top dose 20 µM) | 0.985 | > 20
NCI-H2030 (lung adenocarcinoma, adherent, top dose 20 µM) | 0.511 | 1.35
NCI-H2052 (mesothelioma, adherent, top dose 20 µM) | 0.969 | > 20
NCI-H2081 (small cell lung carcinoma, suspension, top dose 20 µM) | 0.945 | > 20
NCI-H2085 (lung adenocarcinoma, adherent, top dose 20 µM) | 0.816 | 12.2
NCI-H2087 (lung adenocarcinoma, semi-adherent, top dose 20 µM) | 0.366 | 0.517
NCI-H2110 (non-small cell lung carcinoma, adherent, top dose 20 µM) | 0.849 | 15.5
NCI-H2122 (lung adenocarcinoma, adherent, top dose 20 µM) | 0.894 | > 20
NCI-H2135 (non-small cell lung carcinoma, adherent, top dose 20 µM) | 0.945 | > 20
NCI-H2141 (small cell lung carcinoma, suspension, top dose 20 µM) | 0.97 | > 20

Cell Line | AUC | IC50 [µM]
NCI-H2170 (lung squamous cell carcinoma, adherent, top dose 20 µM) | 0.901 | > 20
NCI-H2171 (small cell lung carcinoma, suspension, top dose 20 µM) | 0.946 | > 20
NCI-H2172 (non-small cell lung carcinoma, adherent, top dose 20 µM) | 0.928 | > 20
NCI-H2196 (small cell lung carcinoma, adherent, top dose 20 µM) | 0.969 | > 20
NCI-H2227 (small cell lung carcinoma, semi-adherent, top dose 20 µM) | 0.586 | 2.22
NCI-H2228 (lung adenocarcinoma, adherent, top dose 20 µM) | 0.675 | 4.98
NCI-H2291 (lung adenocarcinoma, adherent, top dose 20 µM) | 0.972 | > 20
NCI-H2342 (lung adenocarcinoma, adherent, top dose 20 µM) | 0.937 | > 20
NCI-H2347 (lung adenocarcinoma, adherent, top dose 20 µM) | 0.649 | 3.55
NCI-H2405 (lung adenocarcinoma, adherent, top dose 20 µM) | 0.869 | > 20
NCI-H2444 (non-small cell lung carcinoma, adherent, top dose 20 µM) | 0.953 | > 20
NCI-H2452 (mesothelioma, adherent, top dose 20 µM) | 0.984 | > 20
NCI-H3122 (lung adenocarcinoma, adherent, top dose 20 µM) | 0.746 | 6.53
NCI-SNU-1 (stomach, suspension, top dose 20 µM) | 0.674 | 3.9
NCI-SNU-5 (stomach, suspension, top dose 20 µM) | 0.989 | > 20
NCI-SNU-16 (stomach, suspension, top dose 20 µM) | 0.908 | > 20
NEC8 (testis, adherent, top dose 20 µM) | 0.952 | > 20
NH-12 (neuroblastoma, adherent, top dose 20 µM) | 0.671 | 3.98
NK-92MI (lymphoid neoplasm, suspension, top dose 20 µM) | 0.893 | > 20
NKM-1 (acute myeloid leukaemia, suspension, top dose 20 µM) | 0.57 | 1.96
NMC-G1 (glioma, adherent, top dose 20 µM) | 0.514 | 1.38
NOMO-1 (acute myeloid leukaemia, suspension, top dose 20 µM) | 0.844 | 17.3
NOS-1 (osteosarcoma, adherent, top dose 20 µM) | 0.823 | 15.5
NTERA-2 cl.D1 (testis, adherent, top dose 20 µM) | 0.879 | > 20
NU-DUL-1 (B-cell lymphoma, suspension, top dose 20 µM) | 0.883 | 14.2
NUGC-3 (stomach, adherent, top dose 20 µM) | 0.956 | > 20

Cell Line | AUC | IC50 [µM]
NUGC-4 (stomach, adherent, top dose 20 µM) | 0.962 | > 20
NY (osteosarcoma, adherent, top dose 20 µM) | 0.988 | > 20
OACM5-1 (oesophagus, semi-adherent, top dose 20 µM) | 0.471 | 1.03
OACp4C (oesophagus, adherent, top dose 20 µM) | 0.946 | > 20
OAW-28 (ovary, adherent, top dose 20 µM) | 0.725 | 6.55
OAW-42 (ovary, adherent, top dose 20 µM) | 0.93 | > 20
OC-314 (ovary, adherent, top dose 20 µM) | 0.936 | > 20
OCI-AML2 (acute myeloid leukaemia, suspension, top dose 20 µM) | 0.911 | 15.4
OCI-AML3 (acute myeloid leukaemia, suspension, top dose 20 µM) | 0.799 | 8.06
OCI-AML5 (acute myeloid leukaemia, suspension, top dose 20 µM) | 0.881 | 17.8
OCI-LY-19 (B-cell lymphoma, suspension, top dose 20 µM) | 0.847 | 13.1
OCI-M1 (acute myeloid leukaemia, suspension, top dose 20 µM) | 0.579 | 1.95
OCUB-M (breast, adherent, top dose 20 µM) | 0.893 | 18.1
OCUM-1 (stomach, adherent, top dose 20 µM) | 0.987 | > 20
OE19 (oesophagus, adherent, top dose 20 µM) | 0.972 | > 20
OE21 (oesophagus, adherent, top dose 20 µM) | 0.873 | > 20
OE33 (oesophagus, adherent, top dose 20 µM) | 0.936 | > 20
OMC-1 (cervix, adherent, top dose 20 µM) | 0.968 | > 20
ONS-76 (medulloblastoma, adherent, top dose 20 µM) | 0.951 | > 20
OPM-2 (myeloma, suspension, top dose 20 µM) | 0.796 | 7.49
OS-RC-2 (kidney, adherent, top dose 20 µM) | 0.818 | 18.6
OSC-19 (head and neck, adherent, top dose 20 µM) | 0.934 | > 20
OSC-20 (head and neck, adherent, top dose 20 µM) | 0.846 | 18.9
OV-7 (ovary, adherent, top dose 20 µM) | 0.514 | 1.39
